Laboratory results taken from US12178917B2, “Beta-lactamase formulations and uses thereof” (Theriva Biologics, Inc., priority 2014, dated 2024).

How the values were obtained:
[1] = In vitro biochemical assay of ceftriaxone hydrolysis by P1A or P3A dissoluted from pellets
Procedure: The beta-lactamase enzymatic activity of formulated pellets containing P1A or P3A (SYN-004) was determined using an in vitro biochemical assay with ceftriaxone as a substrate. The pellets were formulated as previously described in Examples 1 and 2. Specifically, P1A and P3A were dissoluted from formulated pellets in 50 mM Potassium Phosphate Buffer 6.8 buffer (pellets manufactured using P1A or P3A drug substance sprayed-dried onto sucrose cores, then sprayed-dried with a protective enteric coating). The concentration of P1A and P3A in the dissolution buffer was determined by HPLC analytical methods and the beta-lactamase enzymatic activity of the dissoluted pellets was evaluated for hydrolysis of ceftriaxone using an in vitro biochemical assay.

[2] = tested on: intestinal microbiome; experiment: P3A-mediated microbiome protection in humanized pigs, 16S rRNA sequencing of fecal DNA; assay type: in vivo, gnotobiotic pigs populated with human adult fecal microflora; conditions: humanized pigs treated with CRO
[3] = tested on: intestinal microbiome; experiment: Whole genome shotgun sequencing and comparative metagenomics of pig fecal samples; assay type: in vivo, gnotobiotic pigs populated with human adult fecal microflora; conditions: compared to Group 3 and Group 1
Procedure: In order to study the ability of P3A to protect the intestinal microbiome from antibiotics-induced (e.g., ceftriaxone (CRO)-induced) damage, pig fecal samples obtained from the study described above were subjected to additional genomic analysis. Specifically, the 16S rRNA gene V1V2 region was sequenced. In addition, fecal DNA was subjected to whole genome shotgun sequencing. Shotgun sequencing was performed using Illumina HiSeq RAPID RUN, targeting 100 bp single read with the aim to achieve approximately 10-20 million reads per sample (Table 6),
These sequence data were classified taxonomically to identify microbial communities associated with the pig fecal samples. Taxonomic classification was performed using bioInformatics algorithms and curated genome databases. Briefly, raw, unassembled shotgun sequence reads were probed against curated GeneBook bacterial and viral databases using GENIUS software package for rapid identification of bacteria communities as well as their relative abundance (Hasan of al., 2014, PLoS ONE 9:e97699; Lax et al., 2014, Science 345:1048). The analyses identified 139 bacterial strains, 79 species, and 35 genera among the treatment groups (Table 7). […]
As the number of sequence reads generated from each individual sample was variable, subsamples from each sample were chosen to represent a subset of 10 million reads. […]

[4] = assay type: in vitro ADME, human
Procedure: The stability of the […] pellets (as formulated in Examples 1 and 2) in human chyme at 37° C. was evaluated. Specifically, […] pellets were incubated in five different chyme specimens. […] The mean relative change in absorbance at 405 nm (ΔAb405) measured at each time point for all of the chyme specimens showing the release and relative stability of the […] beta-lactamase activity is presented in FIG. 3.

[5] = Half-life of P3A beta-lactamase activity in clarified chyme; assay type: in vitro ADME, human
Procedure: Stability of P3A in human chyme was evaluated in both raw and clarified chyme specimens. Incubations of P3A at 37° C. in the chyme specimens were performed in triplicate for each chyme specimen (1 to 5) and the mixed thyme matrix. Samples were removed at 0, 30, 60, 120, 180, 240, 300, and 360 minutes and analysed for beta-lactamase enzymatic activity using a CENTA beta-lactamase substrate. The beta-lactamase activity of the chyme/P3A specimens was determined based on the change of absorbance at 405 nm per min (ΔA405/min) in the first minute (linear portion) of the reaction. The ΔA405/min values were normalized to a 1 cm path length by dividing the ΔA405/min value by the determined path length. The mean of the normalized ΔA405/min values of the individual replicates for each chyme specimen were used to calculate the relative beta-lactamase activity at each time point.

B1: P3A: beta-lactamase of SEQ ID NO: 1; D276N mutation relative to P1A (protein)
chain: TEMKDDFAKLEEQFDAKLGIFALDTGTNRTVAYRPDERFAFASTIKALTVGVLLQQKSIEDLNQRITYTRDDLVNYNPITEKHVDTGMTLKELADASLRYSDNAAQNLILKQIGGPESLKKELRKIGDEVTNPERFEPELNEVNPGETQDTSTARALVTSLRAFALEDKLPSEKRELLIDWMKRNTTGDALIRAGVPDGWEVADKTGAASYGTRNDIAIIWPPKGDPVVLAVLSSRDKKDAKYDNKLIAEATKVVMKALNMNGK
fold greater catalytic rate of ceftriaxone than P1A ([1]; ceftriaxone as substrate): 3.4 fold
mean kcat value ([1]; ceftriaxone as substrate, enzyme dissoluted from formulated pellets, three concentrations): 139 s⁻¹
activity of dissoluted material for hydrolysis of ceftriaxone vs drug substance reference standard ([1]; dissoluted pellet material vs respective reference standard): comparable
protection of the microbiome (conclusion) [2]: can protect the human microbiome
abundance of gram negative organisms [3]: less abundant
abundance of gram positive organisms [3]: overabundant
duration of high-level P3A activity [4]: at least 6 hours
loss in overall beta-lactamase activity [4]: less than 50%
T1/2 (min) of beta-lactamase activity ([5]; Mixed Chyme, 37° C.): > 300 min and 325 min
relative stability ([5]; chyme 3, 37° C., bound within the 360 min incubation): > 360 min
T1/2 (min) of beta-lactamase activity ([5]; clarified Chyme 1, 37° C.): 243 min
T1/2 (min) of beta-lactamase activity ([5]; clarified Chyme 2, 37° C.): > 300 min and 342 min
T1/2 (min) of beta-lactamase activity ([5]; clarified Chyme 3, 37° C., extrapolated by linear regression from 120 to 360 min): 394^(a) min
T1/2 (min) of beta-lactamase activity ([5]; clarified Chyme 4, 37° C.): > 300 min and 334 min
T1/2 (min) of beta-lactamase activity ([5]; clarified Chyme 5, 37° C.): > 300 min and 328 min

Values joined by “and” are separate entries in the source; they are usually repeats but may differ in a detail not shown here. Equal entries are not always repeated. Marks after values point to notes of the source that are not given here.
